# Test results as given in the supplement of paper PMC8728848.
# The list shows a part of the results.
# B1: PX9937A-bvu-521-23-521 (Bacteroides vulgatus) (protein)
# chain: LDLAPEDYYGAGNFWKEASQPKAFMLGLHAQLRSYYDMFYTLGELRGGTQRVGTSSLNTSLNYADIRSQNISEDIPGISNWNGLYSPIMQVNHFIQEVENGCTFLDDATRSRYLGQAYGMRALYYFMLYRTFGGVPLITKVDILDGKPSADKFYVERATPEATMEFIKADINKSENYFGNNTSFDAYDWSRYATLMLKAEIYMWAAKVSITGFTATGATDLQTAKTALSGIIGHFELMDNFASIFSCDNKKNTEIIFAMPFIEGEASNDGGRFLYQDAVFLGQAYGRNGKVIEKDTLNLKGTGGVFRDEYTEDFWKTFKEGDSRRDATFMEYYMKNDNGTLSEFGCVMKKRIGTINSNDNRIYISDIPVYRYADALLMMAEIENGLNNPCASYINEVRKRAYGDTFEENKYTEGSYAENELAILQERDKEFVSEGKRWFDVLRMHDASGRSLVFSANANYPGTNPILGTEEAYKMLWPVNIGTLNVNPLLTQTPGYGKK
# What was measured:
# Assay in all cases: glycan array binding signal (z-score within array); higher = stronger binding
# Details in all cases: glycan notation: IUPAC condensed, linker removed
# [1] = target: Neu5Ac(a2-6)GlcNAc(b1-4)GlcNAc(b1-4)GlcNAc
# How it was run: (§1)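 Arrays were curated from the Consortium for Functional Glycomics database, 3228 in total, and kept only where the protein sequence was available. Binding is expressed as a within-array Z-score. This score was averaged across arrays of the same protein sequence at different concentrations or buffers and across linkers, and negative values can be read as non-binding.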
# Neu5Ac(a2-8)Neu5Ac = target: Neu5Ac(a2-8)Neu5Ac
# How it was run: as §1
# [2] = target: Neu5Ac(a2-8)Neu5Ac(a2-3)Gal(b1-3)GalNAc(b1-4)[Neu5Ac(a2-3)]Gal(b1-4)Glc
# How it was run: as §1
# [3] = target: Neu5Ac(a2-8)Neu5Ac(a2-3)Gal(b1-3)GalNAc(b1-4)[Neu5Ac(a2-8)Neu5Ac(a2-3)]Gal(b1-4)Glc
# How it was run: as §1
# [4] = target: Neu5Ac(a2-8)Neu5Ac(a2-3)Gal(b1-4)Glc
# How it was run: as §1
# [5] = target: Neu5Ac(a2-8)Neu5Ac(a2-3)Gal(b1-4)GlcNAc
# How it was run: as §1
# [6] = target: Neu5Ac(a2-8)Neu5Ac(a2-3)[Gal(b1-3)GalNAc(b1-4)]Gal(b1-4)Glc
# How it was run: as §1
# [7] = target: Neu5Ac(a2-8)Neu5Ac(a2-3)[GalNAc(b1-4)]Gal(b1-4)Glc
# How it was run: as §1
# [8] = target: Neu5Ac(a2-8)Neu5Ac(a2-8)Neu5Ac
# How it was run: as §1
# [9] = target: Neu5Ac(a2-8)Neu5Ac(a2-8)Neu5Ac(a2-3)Gal(b1-4)Glc
# How it was run: as §1
# [10] = target: Neu5Ac(a2-8)Neu5Ac(a2-8)Neu5Ac(a2-3)[Gal(b1-3)GalNAc(b1-4)]Gal(b1-4)Glc
# How it was run: as §1
# [11] = target: Neu5Ac(a2-8)Neu5Ac(a2-8)Neu5Ac(a2-3)[GalNAc(b1-4)]Gal(b1-4)Glc
# How it was run: as §1
# [12] = target: Neu5Ac(a2-8)Neu5Ac(a2-8)Neu5Ac(a2-8)Neu5Ac(a2-3)[GalNAc(b1-4)]Gal(b1-4)Glc
# How it was run: as §1
# [13] = target: Neu5Ac(a2-8)Neu5Gc(a2-3)Gal(b1-4)GlcNAc
# How it was run: as §1
# [14] = target: Neu5Ac(b2-6)Gal(b1-4)GlcNAc
# How it was run: as §1
# Neu5Ac(b2-6)GalNAc = target: Neu5Ac(b2-6)GalNAc
# How it was run: as §1
# [15] = target: Neu5Ac9Ac(a2-3)Gal(b1-3)GlcNAc
# How it was run: as §1
# [16] = target: Neu5Ac9Ac(a2-3)Gal(b1-4)GlcNAc
# How it was run: as §1
# [17] = target: Neu5Ac9Ac(a2-6)Gal(b1-4)GlcNAc
# How it was run: as §1
# [18] = target: Neu5Gc(a2-3)Gal(b1-3)GlcNAc
# How it was run: as §1
# [19] = target: Neu5Gc(a2-3)Gal(b1-3)[Fuc(a1-4)]GlcNAc
# How it was run: as §1
# Neu5Gc(a2-3)Gal(b1-4)Glc = target: Neu5Gc(a2-3)Gal(b1-4)Glc
# How it was run: as §1
# [20] = target: Neu5Gc(a2-3)Gal(b1-4)GlcNAc
# How it was run: as §1
# [21] = target: Neu5Gc(a2-3)Gal(b1-4)GlcNAc(b1-3)Gal(b1-4)GlcNAc(b1-2)Man(a1-3)[Neu5Gc(a2-3)Gal(b1-4)GlcNAc(b1-3)Gal(b1-4)GlcNAc(b1-2)Man(a1-6)]Man(b1-4)GlcNAc(b1-4)GlcNAc
# How it was run: as §1
# [22] = target: Neu5Gc(a2-3)Gal(b1-4)[Fuc(a1-3)]GlcNAc
# How it was run: as §1
# [23] = target: Neu5Gc(a2-6)Gal(b1-4)GlcNAc
# How it was run: as §1
# Neu5Gc(a2-6)GalNAc = target: Neu5Gc(a2-6)GalNAc
# How it was run: as §1
# [24] = target: Neu5Gc(a2-8)Neu5Ac(a2-3)Gal(b1-4)GlcNAc
# How it was run: as §1
# [25] = target: Neu5Gc(a2-8)Neu5Gc(a2-3)Gal(b1-4)GlcNAc
# How it was run: as §1
# [26] = target: Neu5Gc(a2-8)Neu5Gc(a2-3)Gal(b1-4)GlcNAc(b1-3)Gal(b1-4)GlcNAc
# How it was run: as §1
# [27] = target: Neu5Gc(a2-8)Neu5Gc(a2-6)Gal(b1-4)GlcNAc
# How it was run: as §1
# [28] = target: Neu5Gc(b2-6)Gal(b1-4)GlcNAc
# How it was run: as §1
binder,measurement,setting,value
B1,glycan array binding signal (z-score),[1],-0.187
same,glycan array binding signal (z-score),Neu5Ac(a2-8)Neu5Ac,-0.065
same,glycan array binding signal (z-score),[2],0.037
same,glycan array binding signal (z-score),[3],-0.237
same,glycan array binding signal (z-score),[4],-0.003
same,glycan array binding signal (z-score),[5],-0.615
same,glycan array binding signal (z-score),[6],-0.181
same,glycan array binding signal (z-score),[7],-0.527
same,glycan array binding signal (z-score),[8],-0.086
same,glycan array binding signal (z-score),[9],-0.218
same,glycan array binding signal (z-score),[10],0.429
same,glycan array binding signal (z-score),[11],-0.377
same,glycan array binding signal (z-score),[12],-0.029
same,glycan array binding signal (z-score),[13],10.6
same,glycan array binding signal (z-score),[14],0.159
same,glycan array binding signal (z-score),Neu5Ac(b2-6)GalNAc,-0.058
same,glycan array binding signal (z-score),[15],-0.381
same,glycan array binding signal (z-score),[16],0.442
same,glycan array binding signal (z-score),[17],0.304
same,glycan array binding signal (z-score),[18],-0.007
same,glycan array binding signal (z-score),[19],-0.256
same,glycan array binding signal (z-score),Neu5Gc(a2-3)Gal(b1-4)Glc,-0.197
same,glycan array binding signal (z-score),[20],-0.16
same,glycan array binding signal (z-score),[21],-0.608
same,glycan array binding signal (z-score),[22],0.176
same,glycan array binding signal (z-score),[23],-0.633
same,glycan array binding signal (z-score),Neu5Gc(a2-6)GalNAc,-0.419
same,glycan array binding signal (z-score),[24],-0.159
same,glycan array binding signal (z-score),[25],-0.264
same,glycan array binding signal (z-score),[26],-0.58
same,glycan array binding signal (z-score),[27],-0.482
same,glycan array binding signal (z-score),[28],-0.267
